Measurements as given in PubChem BioAssay AID463173 (ICCB-Longwood Screening Facility, Harvard Medical School, 2010).
Among all 52,000 compounds or so, about 1,700 (3.3%) were called active. Cut-off read from the data, not from the text of the source: active = survival mostly below about 52% (no sharp cut-off); inactive = mostly above about 56%. The list shows a part of the results.

Each molecule was assayed on Wild type (assay: growth inhibition of S. aureus wild type versus tarO mutant, primary screen, teichoic acid synthesis inhibitors, RN4220, OD600 (AID 463173)). Conditions: S. aureus RN4220 wild type/DeltatarO growth, OD600, 18 h, active compounds read low, screened at 18.75 µg/mL (by protocol).

SMILES	survival
CCOc1ccc(CNC(=O)c2ccc3c(c2)nc2n3CCCCC2)cc1	inactive: 66%
COCCn1c(=O)[nH]c2cc(C(=O)Nc3ccc(OC)cc3)ccc2c1=O	inactive: 138%
CC(C)Oc1ccc(CNC(=O)C2CCN(Cc3cc4ccccc4n3Cc3ccccc3)CC2)cc1	inactive: 93%
Cc1ccc2c(c1)cc(C(=O)NCc1ccccc1C)n2C	inactive: 95%
CCc1cnc2c(c1SCC(=O)Nc1ccc(C(=O)OC)cc1)c(=O)n(C)c(=O)n2C	inactive: 92%
CCn1c2ccccc2c2cc(NC(=O)COc3cc(C)ccc3C)ccc21	inactive: 18%
Cc1cccc(Cn2c(COc3ccccc3)nc3ccccc32)c1	active: -11%
O=C(O)c1ccc(C(=O)c2cc(C(=O)O)ccc2C(=O)O)cc1	inactive: 110%
CC(C)(C)c1ccc(OCCOCCn2c(-c3ccc(Cl)cc3)nc3ccccc3c2=O)cc1	inactive: 99%
O=C(COC(=O)c1cccc(NC(=O)c2ccc(Br)cc2)c1)c1ccc(Cl)cc1	inactive: 93%
O=C(/C=C/c1ccccc1)Nc1nc2n(n1)C(c1ccc(F)cc1)C=C(c1ccccc1)N2 (stereo not given)	inactive: 59%
CC(C)Oc1ccc(CNC(=O)c2ccc(NC(=O)N3CC(C)Sc4ccccc43)cc2)cc1 (stereo not given)	inactive: 72%
Cc1cc(C)c(S(=O)(=O)NCC(c2ccco2)S(=O)(=O)c2cccs2)c(C)c1 (stereo not given)	inactive: 19%
Cc1cc(Br)cc2c1N(Cc1ccccc1OC(C)C)C(=O)C2=O	active: 26%
CC1CCc2onc(C(=O)N3CCN(c4cccc(Cl)c4)CC3)c2C1 (stereo not given)	inactive: 88%
C=CCNC(=O)Cc1c(O)c2ccccc2[nH]c1=O	inactive: 123%
CCc1nn2c(=O)c(S(=O)(=O)Nc3ccc(C)c(C)c3)c(C)nc2s1	inactive: 70%
CCOC(=O)CNC(=O)c1cc2c(=O)n3cccc(C)c3nc2n1C	inactive: 105%
O=C1OC2(CCCC2)OC(=O)C1=Cc1ccc(N2CCOCC2)o1	inactive: 106%
CCc1cccc(C)c1NC(=O)c1cnn(-c2ccc(OC)cc2)c1C1CCN(C(=O)OC(C)(C)C)CC1	inactive: 87%
COc1ccc(NC(=O)c2nc(-c3ccc(C)cc3)n3c2CCCCC3)c(OC)c1	inactive: 85%
CCOCCc1nn2c(=O)cc(COC(=O)c3ccc(NC(=O)C(C)(C)C)cc3)nc2s1	inactive: 77%
O=C1OCC2=C1C(c1ccc(F)cc1)Sc1ccccc1N2 (stereo not given)	inactive: 120%
OCCc1c[nH]c2ccc(OCc3ccccc3)cc12	inactive: 110%
Cc1cc2oc(C(=O)N(Cc3ccco3)Cc3ccccc3Cl)c(C)c2cc1C	inactive: 85%
